According to PubChem BioAssay AID1745845 (National Center for Advancing Translational Sciences (NCATS), 2022):
The campaign covered roughly 360,000 compounds. About 2,600 (0.72%) were called active. The shares of active, inactive and inconclusive entries below differ from those in the screen. The call rests on the fitted dose curve; in most records, active means well fitted inhibition curve with a large enough effect; inconclusive means small, poorly fitted or top-dose-only effect; inactive means no such curve, though single readings can be large or run the other way. A potency beside an inconclusive call is a rough fit, not a confirmed value.

Test: Primary qHTS for Inhibitors of ATXN expression; further: nearly all actives have a fitted effect of over 55% in size
Details: HEK-293 ATXN2-luciferase reporter, luminescence, 24 h; series mostly up to 57 µM
Procedure, shortened: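 qHTS (up to 57 uM final) was run with 24 h compound exposure of reporter cells at 37 °C. Each well was multiplexed: SteadyGlo luminescence measured ATXN2-luciferase expression after a fluorogenic Gly-Phe-AFC viability readout (25 uM final).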
Potency means the concentration at half of the fitted maximal effect; tags describe the fitted curve by direction and shape.

Potency, active:
O=C(Nc1ccc(NC(=O)c2ccco2)cc1)c1ccc2c(c1)OCCO2 15.8 µM
CCCCS(=O)(=O)c1oc(-c2cccs2)nc1S(=O)(=O)c1ccccc1 3.16 µM
Cc1ccccc1/C=N/Nc1ccnc2cc(Cl)ccc12 22.4 µM
CCOC(=O)/C(=C\c1cccnc1)C(=O)c1cc(C(C)=O)c(Nc2ccccc2)s1 3.55 µM
CCN(CC)CC(C)CNC(=O)c1cc(-c2ccc(Br)s2)nc2ccccc12 (centres undefined) 28.2 µM

Potency, inactive:
Fc1ccc(NC(=S)Nc2ccc(Br)cc2)cc1
CCCNCC(O)Cn1c2ccccc2n2c(=O)cc(C)c(C#N)c12 (centres undefined)
Oc1ccccc1C=NNc1nc2ccccc2s1
COc1ccc(C2=NN(C(=O)CCC(=O)O)C(c3ccccc3F)C2)cc1 (centres undefined)
COc1ccc(CCNC(=O)c2ccc(OCc3c(C)noc3C)c(OC)c2)cc1
COc1ccc2oc(=O)c(-c3csc(-c4ccc(Br)cc4)n3)cc2c1
O=C1Nc2ccccc2/C1=C/c1cnc(-c2ccccc2)[nH]1
CCCCC/C(=N\NC(=O)Nc1ccccc1)c1ccccc1
CN1CCc2nc(SCc3ccc(C(C)(C)C)cc3)c(C#N)cc2C1
CC(=O)c1ccc(NC(=S)NC(C)c2ccc(Cl)cc2Cl)cc1 (centres undefined)
O=C1NC[C@@H](CCCCN2CCN(CCc3ccc(O)cc3)C(=O)C2=O)N(CCc2ccc(O)cc2)C1=O
Cc1cc(C)nc(SCC(=O)Nc2sc3c(c2C#N)CCC(C)C3)n1 (centres undefined)
COC(=O)c1ccccc1NC(=S)NC(=O)c1ccc2ccccc2c1
COc1ccccc1NS(=O)(=O)c1ccc(C(=O)N2CCCC(C(F)(F)F)C2)cc1 (centres undefined)
Cc1cccc(NC(=O)c2ncn3c2C(=O)NC[C@@H]3C)c1
CC(=O)Nc1ccc(/C(C)=N/Nc2nc(Nc3ccccc3)nc(N3CCOCC3)n2)cc1
CCc1ccc([C@@H]2CC=C(C(=O)O)[C@H](c3cccc(Cl)c3)N2S(=O)(=O)c2ccc(C)cc2)cc1

Potency, inconclusive:
CC1C(C)N(C(=O)CCl)c2ccccc2N1C(=O)CCl (centres undefined) 35.5 µM [inhibitor, single point]
CN(C(=O)CSc1nc2ccc(NC(=O)COc3ccc(Cl)cc3)cc2s1)c1ccccc1 25.1 µM [inhibitor, partial curve, poor fit]
O=C(c1ccccc1)c1ccc(OCC(O)CNCc2ccc(Cl)cc2)cc1 (centres undefined) 39.8 µM [inhibitor, partial curve, poor fit]
CCCCNc1c(-c2cccc(-c3ccc(OC)cc3)c2)nc2cc(C)ccn12 25.1 µM [inhibitor, single point]
CCn1c(C)nc2cc(C(=O)N/N=C(\C)c3ccc(OC)cc3O)ccc21 16.8 µM [inhibitor, partial curve, poor fit]
Cc1ccc(S(=O)(=O)N2CCN(c3ncnc4sccc34)CC2)cc1C 7.94 µM [inhibitor, partial curve, poor fit]
COc1ccc(C(=O)Nc2ccc(-c3ccc(C)o3)cc2)cc1S(=O)(=O)N1CCOCC1 17.8 µM [inhibitor, partial curve, poor fit]
CCOC(=O)c1c(C)oc2ncnc(N3CCN(c4ccccc4F)CC3)c12 20 µM [inhibitor, partial curve, poor fit]
CN(C)c1ccc(-c2[nH][nH]c(=O)c2NC(=O)c2ccccn2)cc1 35.5 µM [inhibitor, single point]
Cc1cccc(C(=O)NC(C(=O)Nc2cccc(S(=O)(=O)N3CCCC3)c2)C(C)C)c1 (centres undefined) 7.52 µM [inhibitor, partial curve, poor fit]
Cc1ccccc1CS(=O)(=O)c1nnc([C@H](CC(C)C)NC(=O)OC(C)(C)C)o1 31.6 µM [inhibitor, single point]
Cn1nc(-c2ccc(Cl)cc2)c2cc(C(=O)N3CCCC3)sc21 14.1 µM [inhibitor, partial curve, poor fit]
C=CCNC(=O)c1cc(-c2ccc3c(c2)OCO3)on1 12.6 µM [inhibitor, single point]
C(=N\NC(=Nc1ccccc1)c1ccccn1)/c1ccccn1 25.1 µM [inhibitor, single point]
O=C(Nc1cccc(S(=O)(=O)C(F)F)c1)c1ccc(S(=O)(=O)N2CCCC2)cc1 1.58 µM [inhibitor, full curve, poor fit]
CCOC(=O)c1sc(NC(=O)c2cc(-c3ccccc3)nc3ccccc23)c(C#N)c1C 25.1 µM [inhibitor, single point]
COc1cc(-c2nc(Cn3nnc(C(=O)Nc4ccccc4)c3C)c(C)o2)cc(OC)c1OC 20 µM [inhibitor, partial curve, poor fit]
CCOC(=O)c1cnc(SCC(=O)Nc2sc(C)c(C)c2C#N)nc1N 11.2 µM [inhibitor, partial curve, poor fit]
CC(=O)c1cccc(NC(=O)C2(C)Cc3c(-c4cccc(C(F)(F)F)c4)ccnc3O2)c1 (centres undefined) 39.8 µM [inhibitor, single point]
COc1ccccc1N1CC(C)(C)C(=O)N(C(=O)c2ccc(Cl)cc2)C1=S 33.6 µM [inhibitor, partial curve, poor fit]
COc1ccc(-c2nc(CSCC(=O)N3CCN(c4cccc(C)c4C)CC3)c(C)o2)cc1OC 31.6 µM [inhibitor, partial curve, poor fit]
CCCCN(C)c1c(C)nc2ccc(C(=O)Nc3cc(-c4ccccc4)ccc3OC)cn12 31.6 µM [inhibitor, single point]
CCCCCCNC(=O)O[C@H]1CN(C(=O)OC(C)C)N(C(=O)OC(C)C)[C@@H]2CN(S(=O)(=O)c3ccc(C)cc3)C[C@]12O 25.1 µM [inhibitor, single point]
CCCn1c(=O)sc2cc(NC(=O)COc3ccc(Cl)cc3)ccc21 39.8 µM [inhibitor, single point]
CN1C(=O)N(C)c2ccc(C=O)c3cccc1c23 3.55 µM [inhibitor, full curve, poor fit]
CCC(NC(=O)c1cc(COc2ccc(F)cc2Cl)on1)c1ccncc1 (centres undefined) 10 µM [inhibitor, partial curve, poor fit]
CCCCCCCCN1C(=O)[C@H](CC(=O)NCCCOC)C[C@@]2(C(=O)OCC)CCCC=C12 15.8 µM [inhibitor, partial curve]
CCN(CC)c1ccc(N=Cc2ccccc2[N+](=O)[O-])cc1 22.4 µM [inhibitor, single point]
CCCCN(C=O)c1c(CC)nc2c(OCc3cc(Cl)cc(Cl)c3)cccn12 15.8 µM [inhibitor, partial curve]
CCN1CCN(CCNC(=O)c2ccc(/C=C3\Sc4ccccc4N(Cc4ccccc4F)C3=O)cc2)CC1 39.8 µM [inhibitor, single point]
C[C@@H](O[C@H]1OCCN(Cc2n[nH]c(=O)[nH]2)[C@@H]1c1ccc(F)cc1)c1cc(C(F)(F)F)cc(C(F)(F)F)c1 24.3 µM [inhibitor, partial curve]
c1csc(CCNc2ncnc3sc4c(c23)CCC4)c1 8.91 µM [inhibitor, partial curve, poor fit]
NC(N)=NN=C(c1ccc(F)cc1)c1ccc(C(F)(F)F)cc1 37.7 µM [inhibitor, single point]
O=[N+]([O-])c1ccc(N2CCN(S(=O)(=O)c3ccccc3)CC2)cc1N1CCc2ccccc2C1 4.47 µM [inhibitor, partial curve, poor fit]
O=C(NCc1cccnc1)/C(=C/c1ccc(-c2cccc(Cl)c2)o1)S(=O)(=O)c1ccccc1 35.5 µM [inhibitor, single point]
CC1CCN(c2c(NCc3ccc(C(=O)N4c5ccccc5CC4C)cc3)c(=O)c2=O)CC1 (centres undefined) 0.562 µM [inhibitor, full curve, poor fit]
Cc1cc(C)nc(SCc2ccc(C(=O)N/N=C/c3cccc(O)c3O)cc2)n1 3.55 µM [inhibitor, full curve]
COc1ccccc1/C=C/C(=O)c1cc(Br)ccc1OC(=O)c1ccco1 39.8 µM [inhibitor, single point]
COC(=O)c1ccc(N=C2S/C(=C\c3cc(C)n(-c4cccnc4)c3C)C(=O)N2C)cc1 35.5 µM [inhibitor, single point]
COc1ccc(Oc2ccc(/C=C/C(=O)c3cccc(OC)c3)cc2[N+](=O)[O-])cc1 35.5 µM [inhibitor, single point]
CCCc1nnc(NC(=O)c2nc(S(=O)(=O)Cc3cccc(C)c3)ncc2Cl)s1 25.1 µM [inhibitor, single point]
CCC(=O)NNC(=S)NC(=O)c1ccc(C)cc1 16.8 µM [inhibitor, partial curve, poor fit]
